Consider 57 compounds from publication PMC4336329 (PLoS ONE, 2015).

SMILES strings stand for the structures. In all, about 310,000 compounds went through this assay and about 14,000 (4.5%) showed an effect of 50% or more. The effect is printed as a negative number. The list shows a part of the results.
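Note: peak tail current of the secondary pulse compared with the same well before compound.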

This assay deals with human ether-à-go-go-related gene (hERG) potassium channel (human, UniProt Q12809). Nature of the assay: primary screen, population patch clamp on CHO cells stably expressing hERG.
human ether-à-go-go-related gene (hERG) potassium channel, sequence (Q12809 whole entry, looked up): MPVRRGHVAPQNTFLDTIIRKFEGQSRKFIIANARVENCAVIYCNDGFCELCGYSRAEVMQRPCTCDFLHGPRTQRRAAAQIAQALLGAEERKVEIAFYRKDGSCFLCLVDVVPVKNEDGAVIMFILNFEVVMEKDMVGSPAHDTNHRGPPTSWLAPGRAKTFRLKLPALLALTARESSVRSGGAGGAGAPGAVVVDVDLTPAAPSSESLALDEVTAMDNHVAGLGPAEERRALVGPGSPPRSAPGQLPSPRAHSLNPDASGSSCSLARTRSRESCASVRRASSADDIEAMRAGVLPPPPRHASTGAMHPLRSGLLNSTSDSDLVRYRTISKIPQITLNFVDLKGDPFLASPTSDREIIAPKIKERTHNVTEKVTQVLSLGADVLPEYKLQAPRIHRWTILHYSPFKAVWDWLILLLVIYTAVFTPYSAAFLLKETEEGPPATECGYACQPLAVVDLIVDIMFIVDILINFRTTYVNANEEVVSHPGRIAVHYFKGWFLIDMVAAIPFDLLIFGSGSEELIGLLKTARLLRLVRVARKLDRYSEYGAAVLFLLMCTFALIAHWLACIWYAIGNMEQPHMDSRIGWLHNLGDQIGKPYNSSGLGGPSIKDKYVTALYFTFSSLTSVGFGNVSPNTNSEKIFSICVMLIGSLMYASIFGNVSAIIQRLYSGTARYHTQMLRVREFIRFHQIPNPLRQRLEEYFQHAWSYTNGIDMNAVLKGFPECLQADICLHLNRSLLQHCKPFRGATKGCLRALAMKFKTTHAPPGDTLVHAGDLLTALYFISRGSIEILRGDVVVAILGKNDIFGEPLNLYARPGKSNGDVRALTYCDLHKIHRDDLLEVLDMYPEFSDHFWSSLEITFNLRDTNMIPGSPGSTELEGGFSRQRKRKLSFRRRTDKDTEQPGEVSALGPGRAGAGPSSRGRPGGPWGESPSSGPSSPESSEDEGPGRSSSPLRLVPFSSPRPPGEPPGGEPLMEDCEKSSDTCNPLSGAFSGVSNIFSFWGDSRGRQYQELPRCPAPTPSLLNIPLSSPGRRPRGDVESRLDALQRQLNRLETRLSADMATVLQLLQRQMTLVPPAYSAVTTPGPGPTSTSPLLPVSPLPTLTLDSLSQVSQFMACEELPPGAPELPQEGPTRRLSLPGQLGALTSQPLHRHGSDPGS
Turning to `Cc1cc(NC(=NC2CC2)c2ccccc2)n(-c2ccccc2)n1`, the “hERG current change (%, negative = inhibition) at 10uM” value turned out to be 32.4%.

As for `CN1C(c2ccc(F)cc2)=CS/C1=C(\C#N)c1nnc2n1-c1ccccc1SC2`, the “hERG current change (%, negative = inhibition) at 10uM” value is on record as -45.5%.

As to `CN(C)c1ccc(/C=N/n2c(C3CCCCC3)n[nH]c2=S)cc1`, the “hERG current change (%, negative = inhibition) at 10uM” value came out at 20%.

As for `Cc1ccc(NC(=O)CN(C)C(=O)Nc2ccc(C)cc2)cc1`, the “hERG current change (%, negative = inhibition) at 10uM” value amounted to 15.5%.

Take `CC(=O)/C(CN1CCCCC1)=N\O.Cl`: the “hERG current change (%, negative = inhibition) at 10uM” value came out at 8.71%.

For the compound `CC(C)CN(CC(C)C)C(=O)Nc1ccccc1F`, the “hERG current change (%, negative = inhibition) at 10uM” value is listed as 0.473%.

Consider `Cc1cccc(-c2c3c(=O)n(C)c(=O)n(C)c3cn2CCO)c1`, for which the “hERG current change (%, negative = inhibition) at 10uM” value was determined as 4.56%.

Regarding `COc1ccccc1CNC(=O)c1ccccc1C(=O)NC(CC(C)C)C(=O)NCc1ccccc1OC` (stereo not drawn), the “hERG current change (%, negative = inhibition) at 10uM” value was 10.6%.

On to `COc1ccccc1CCn1cnc2c3cc(C)ccc3n(C)c2c1=O`, for which the “hERG current change (%, negative = inhibition) at 10uM” value is given as -2.79%.

Turning to `CCCSc1nnc(-c2ccccc2NC(=O)CC)c(=O)[nH]1`, the “hERG current change (%, negative = inhibition) at 10uM” value is given as 6.99%.

Regarding `O=C(CN1CCN(Cc2ccccc2)CC1)NNC(=O)c1ccccc1`, the “hERG current change (%, negative = inhibition) at 10uM” value is -13.5%.

Turning to `O=C(CCN1C(=O)/C(=C/c2ccccc2Cl)SC1=S)NC1C=CS(=O)(=O)C1` (stereo not drawn), the “hERG current change (%, negative = inhibition) at 10uM” value is given as 12.9%.

Take `COc1ccc(NC(=S)N(CCCN2CCCC2)Cc2cccs2)cc1`: the “hERG current change (%, negative = inhibition) at 10uM” value is on record as -48%.

In the case of `O=C(COC(=O)CC1CC2CCC1C2)Nc1cccc(S(=O)(=O)NC2=NCCCCC2)c1` (stereo not drawn), the “hERG current change (%, negative = inhibition) at 10uM” value is on record as -20.5%.

Regarding `C/C(=N\NC(=O)CNc1cccc2ccccc12)c1ccccc1`, the “hERG current change (%, negative = inhibition) at 10uM” value is on record as 10.2%.

For the compound `Cl.O=S(=O)(c1ccc2nc(COc3ccccc3)[nH]c2c1)N1CCOCC1`, the “hERG current change (%, negative = inhibition) at 10uM” value is on record as -11.5%.

For the compound `COc1cccc(C(=O)NCCn2ccc3ccccc32)c1`, the “hERG current change (%, negative = inhibition) at 10uM” value is given as 6.37%.

On to `CCOc1cc(/C=N/NC(=O)c2ccncc2)cc(Cl)c1OS(C)(=O)=O`, for which the “hERG current change (%, negative = inhibition) at 10uM” value is recorded as -16.6%.

`Cn1cc(/C=N/n2cnc3scc(-c4ccccc4)c3c2=O)c2ccccc21`: the “hERG current change (%, negative = inhibition) at 10uM” value is on record as 4.68%.

For `COc1ccc2c(C)nc(Nc3nc(C)cc(C)n3)nc2c1`, the “hERG current change (%, negative = inhibition) at 10uM” value stood at 5.64%.

In the case of `CC1=CC(=C2C(=O)NC(=O)NC2=O)C=C(C(F)(F)F)N1C(C)C`, the “hERG current change (%, negative = inhibition) at 10uM” value is reported as -20.2%.

As to `Cc1ccc(S(=O)(=O)CCC(=O)NCCc2ccc(Cl)cc2)cc1`, the “hERG current change (%, negative = inhibition) at 10uM” value was -6.35%.

Take `CCn1c(=O)c2ccccc2n(Cc2cccc([N+](=O)[O-])c2)c1=O`: the “hERG current change (%, negative = inhibition) at 10uM” value came to 15.3%.

Take `CCOC(=O)C1=C(C)NC(=O)NC1c1ccc2c(c1)OCCO2` (stereo not drawn): the “hERG current change (%, negative = inhibition) at 10uM” value is reported as 10.1%.

In the case of `O=C(NC1(C(F)(F)F)N=C(c2ccccc2)NC1=O)c1ccc(Cl)cc1Cl` (stereo not drawn), the “hERG current change (%, negative = inhibition) at 10uM” value is recorded as -5.66%.

As for `CCNC(=O)Cn1cc(C#N)c2ccccc21`, the “hERG current change (%, negative = inhibition) at 10uM” value was 1.8%.

Consider `COc1ccc(-n2nnc3c(=O)n(Cc4cccc(C)c4)cnc32)cc1`, for which the “hERG current change (%, negative = inhibition) at 10uM” value was -8.52%.

Take `CCOC(=O)c1cc2c(nc1NC(=S)Nc1ccccc1)CC(C)(C)OC2`: the “hERG current change (%, negative = inhibition) at 10uM” value is reported as 4.96%.

For the compound `COc1cccc(CN(C(=O)CN2C(=O)c3ccccc3S2(=O)=O)C(C(=O)NCC2CCCO2)c2ccco2)c1` (stereo not drawn), the “hERG current change (%, negative = inhibition) at 10uM” value was -38.1%.

Take `Cc1nn2c(N3CCN(CCO)CC3)c3c(nc2c1-c1ccccc1)CCCC3`: the “hERG current change (%, negative = inhibition) at 10uM” value worked out at 0.0317%.

As for `COc1cnn(-c2ccc(C)cc2)c(=O)c1Br`, the “hERG current change (%, negative = inhibition) at 10uM” value is given as 11.7%.

Regarding `Cc1nn(CCO)c2c1C(=O)CCC2`, the “hERG current change (%, negative = inhibition) at 10uM” value is listed as 16.3%.

`O=C(Cn1cc2c(n1)CCCC2)NCCCN1CCCC1`: the “hERG current change (%, negative = inhibition) at 10uM” value came out at 7.79%.

Regarding `O=C1N(Cc2cccnc2)C[C@@H]2C[C@@H](c3cccc(Oc4ccccc4)c3)N3CCC[C@@]123`, the “hERG current change (%, negative = inhibition) at 10uM” value is -59.4%.

Regarding `Cc1cc(C)n2nc(SCC#N)nc2n1`, the “hERG current change (%, negative = inhibition) at 10uM” value is -7.25%.

As to `CC(NC(=O)c1ccc(N)cc1)c1ccccc1` (stereo not drawn), the “hERG current change (%, negative = inhibition) at 10uM” value was 22.2%.

As to `COc1cccc(/C=N/NC(=O)CCc2c(C)n[nH]c2C)c1O`, the “hERG current change (%, negative = inhibition) at 10uM” value is on record as -2.97%.

Turning to `COc1cccc(NC(=O)/C=C/c2ccc(S(=O)(=O)N3CCOCC3)cc2)c1`, the “hERG current change (%, negative = inhibition) at 10uM” value is -17.6%.

As to `O=C(CN(C(=O)CNS(=O)(=O)c1ccccc1)c1ccc2c(c1)OCCO2)NCc1ccco1`, the “hERG current change (%, negative = inhibition) at 10uM” value is reported as -6.53%.

Take `O=C(COC(=O)/C=C/c1ccc(Br)o1)NC1CCCCC1`: the “hERG current change (%, negative = inhibition) at 10uM” value is given as 11%.

In the case of `Cc1cccc(OCC(=O)N/N=C/c2cc([N+](=O)[O-])ccc2N2CCOCC2)c1`, the “hERG current change (%, negative = inhibition) at 10uM” value is -9.73%.

As to `CC(=O)c1cccc(NC(=O)CCc2nnc3ccc(NCc4ccco4)nn23)c1`, the “hERG current change (%, negative = inhibition) at 10uM” value is recorded as 18.1%.

As to `O=C(CSCc1ccc(Cl)cc1)NCCSCc1ccco1`, the “hERG current change (%, negative = inhibition) at 10uM” value is -1.82%.

In the case of `COc1ccc(CCNC(=O)CCCn2ncn3c(cc4occc43)c2=O)c(OC)c1`, the “hERG current change (%, negative = inhibition) at 10uM” value is reported as -12%.

Consider `CC(C)NC(=O)COC(=O)c1cc(=O)[nH]c2ccccc12`, for which the “hERG current change (%, negative = inhibition) at 10uM” value was 8%.

`CC1(C)CC(=O)C(CC(=O)Nc2ccc(S(N)(=O)=O)cc2)=C(O)C1`: the “hERG current change (%, negative = inhibition) at 10uM” value was -4.32%.

On to `Cc1cc(C)cc(NC(=O)COC(=O)CN=C2NS(=O)(=O)c3ccccc32)c1`, for which the “hERG current change (%, negative = inhibition) at 10uM” value was 15.6%.

As to `Cc1c(C(=O)N2CCCCC2)c(S(=O)(=O)N2CCc3ccccc32)c(C)n1C`, the “hERG current change (%, negative = inhibition) at 10uM” value came out at 7.1%.

In the case of `Cc1c(C(=O)N2CCCCC2)sc(NC(=O)C23CC4CC(CC(C4)C2)C3)c1C#N`, the “hERG current change (%, negative = inhibition) at 10uM” value came out at 16%.

With `COc1ccc2ccccc2c1C1CC(=O)N2CN(Cc3ccco3)CSC2=C1C#N` (stereo not drawn), the “hERG current change (%, negative = inhibition) at 10uM” value is 16.3%.

Consider `Cc1ccc(S(=O)(=O)N(C)CC(=O)OCC(=O)N2CC(=O)Nc3ccccc32)cc1`, for which the “hERG current change (%, negative = inhibition) at 10uM” value is -11.5%.

On to `CC(C)(C)c1cc2ncnc(N3CCCCC3)c2s1`, for which the “hERG current change (%, negative = inhibition) at 10uM” value is given as -7.25%.

On to `CN(C)C(=O)N1CCN(C(=O)N(C)C)CC1`, for which the “hERG current change (%, negative = inhibition) at 10uM” value is given as 14.8%.

Consider `OCC1CCN(Cc2nc(Cc3ccccc3Cl)no2)CC1`, for which the “hERG current change (%, negative = inhibition) at 10uM” value was 24.4%.

Regarding `C=CCn1c(SCC(=O)c2ccc(O)c(O)c2)nnc1-c1cccc(C)c1`, the “hERG current change (%, negative = inhibition) at 10uM” value is on record as -23.1%.

As for `CCOn1c(=O)c(-c2ccc(Cl)cc2)[n+]([O-])c2ccccc21`, the “hERG current change (%, negative = inhibition) at 10uM” value was 16.2%.

Turning to `COc1ccc(C(=O)C2CCCN(Cc3c[nH]c4ccccc34)C2)c(OC)c1` (stereo not drawn), the “hERG current change (%, negative = inhibition) at 10uM” value is -70.8%.
